# From PubChem BioAssay (NCATS)
# Inconclusive results, whose numbers are uncertain, are shown with a selection of clear calls. For some assays here: Potencies of inconclusive entries are doubtful fits and often do not repeat. For some assays here: A note “side channel” means that the fit belongs to a control or component signal, not to the main read-out. Activity calls are given as the source filed them. Unless noted, the call rests on the fitted dose curve; in most records, active means well fitted curve in the direction sought with a large enough effect; inconclusive means small, poorly fitted or top-dose-only effect, or another doubt; inactive means no such curve, though single readings can be large; an effect the other way counts as inactive or inconclusive. Bridge positions count the residues as written; N and C are the ends. Square brackets hold non-standard residues; d marks the D form. Peptide text beside a SMILES is read from it. NMeY = CN[CH](Cc1ccc(O)cc1)C(=O)O
# Columns and labels:
# [1] = tested on: CRL-7250; test: Cytotoxic Profiling of Annotated Libraries Using Quantitative High-Throughput Screening (AID 1296008); settings: Five cell lines viability, CellTiter-Glo ATP luminescence, 48-72 h; max response: active compounds read low; further: nearly all actives have a fitted effect of over 60% in size; further: potency means the concentration at half of the fitted maximal effect; on max response: on the % scale 0 is the no-effect control and ±100 the full control effect
# Summary of the method: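 Cytotoxicity was measured as CellTiter-Glo ATP luminescence, read after 10 min at room temperature. Compound treatment of the cells lasted 48 or 72 hr at 37 degrees Celsius in a qHTS format.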
# [2] = tested on: SKOV3; test: Primary qHTS to identify gynecologic anti-cancer compounds using libraries of approved drugs and bioactive compounds (AID 1345084); settings: Gynecologic cancer cell panel viability, ATPlite luminescence, 48 h; series mostly up to 57.5 µM; further: nearly all actives have a fitted effect of over 55% in size; further: potency means the concentration at half of the fitted maximal effect
# Summary of the method: (§1)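 48 h compound exposure at 37 C, 5% CO2; five-point qHTS. ATPlite luminescence readout of cell ATP.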
# [3] = Primary qHTS for inhibitors of nuclear receptor binding SET domain protein 2 (NSD2) in an isogenic RCH-ACV NSD2 p.E1099K mutant (9B) (AID 1645876); settings: RCH-ACV NSD2 E1099K (9B) viability, CellTiter-Glo, 72 h; series mostly up to 44.9 µM; further: nearly all actives have a fitted effect of over 70% in size; further: potency means the concentration at half of the fitted maximal effect
# [4] = tested on: PA-1; test: Primary qHTS to identify gynecologic anti-cancer compounds using libraries of approved drugs and bioactive compounds (AID 1345084); settings: Gynecologic cancer cell panel viability, ATPlite luminescence, 48 h; series mostly up to 57.5 µM; further: nearly all actives have a fitted effect of over 55% in size; further: potency means the concentration at half of the fitted maximal effect
# Summary of the method: as §1
# [5] = tested on: Zika virus NS2B-NS3 protease (unlinked complex); test: Primary screen GU Rhodamine qHTS for Zika virus inhibitors: Unlinked NS2B-NS3 protease assay (AID 1347159); settings: Recombinant ZIKV NS2B-NS3 protease, Rhodamine110 substrate fluorescence; series mostly up to 107 µM; further: potency means the concentration at half of the fitted maximal effect; nearly all actives have a fitted effect of over 60% in size
# Summary of the method: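 Compounds, tested up to 114 microM, were incubated for 15 minutes with 25 nM unlinked NS2B-NS3 protease at pH 8.0. Cleavage of 1.5 microM Rhodamine110 substrate was then followed by fluorescence for 15 minutes.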
# [6] = tested on: Zika virus NS2B-NS3 protease (linked construct); test: Primary screen NINDS Rhodamine qHTS for Zika virus inhibitors (AID 1347160); settings: purified NS2B-NS3 protease, Rhodamine110 substrate fluorescence; activity change, negative = inhibition: at 57.1 µM (top of the series) unless noted; series mostly up to 57.1 µM; further: potency means the concentration at half of the fitted maximal effect; nearly all actives have a fitted effect of over 55% in size
# Summary of the method: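 Percent inhibition, normalized to uninhibited and enzyme-free controls, is fitted to a 4-parameter Hill equation. Fluorescence change comes from a 15-min cleavage of 1.5 microM bis-peptide Rhodamine110 substrate by 25 nM linked NS2B-NS3 at room temperature.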
# [7] = Primary fluorescence-based thiol-reactive (MSTI) qHTS assay for identification of artifact compounds. (AID 1845221); settings: MSTI thiol-reactivity probe, 1 h; series mostly up to 53.8 µM;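 further: potency means the concentration at half of the fitted maximal effect; thiol-reactive compounds lower the probe fluorescence signal; nearly all actives have a fitted effect of over 65% in size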
# Summary of the method: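 First, 4 uM MSTI in 2% DMSO/PBS pH 7.4 was dispensed; next, compounds were added; then plates sat 1 h at room temperature without light. Finally, emission at 598 nm was recorded.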
# [8] = Primary redox qHTS assay for identification of artifact compounds. (AID 1845223); settings: Amplex Red/HRP redox cycling with DTT, fluorescence; redox activity (% of DA3003): at 53.8 µM (top of the series);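 further: 0% = DMSO and 100% = reference compound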
# Summary of the method: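 Amplex Red (25 uM) and HRP (250 mU/mL) in HBSS, with compounds for 15 min, then 250 uM DTT for 30 min, room temperature, dark. Fluorescence 525/598 nm read; normalized to DMSO and 10 uM DA3003; Hill fit.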
# [9] = P-glycoprotein substrates identified in KB-8-5-11 adenocarcinoma cell line, qHTS therapeutic library screen (AID 1346987); settings: KB-8-5-11 (P-gp overexpressing) viability, CellTiter-Glo, 72 h; series mostly up to 44.5 µM; further: potency means the concentration at half of the fitted maximal effect; nearly all actives have a fitted effect of over 65% in size
# Summary of the method: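 Steps: plate 500 KB-8-5-11 cells/well in DMEM + 10% FCS (colchicine removed); pin compounds in dose-response; incubate 72 h, 37 degree C, 5% CO2; add CellTiter-Glo, 5 min; read luminescence.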
# [10] = NS1 protein of Zika virus - qHTS assay to identify small molecule inhibitors in human HEK 293 cells (AID 1347053); settings: HEK293 ZIKV MR766 infection, NS1 TR-FRET, 24 h; series mostly up to 46.1 µM;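 further: plate controls were infected untreated cells for no effect and uninfected cells for full effect; nearly all actives have a fitted effect of over 55% in size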
# Summary of the method: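 HEK 293; 20 h pre-culture, 37 C/5% CO2; cpd 1 h pre-infection; ZIKV MR766, MOI = 0.5, 24 h, 37 C; TR-FRET NS1 readout (two anti-NS1 Abs); norm. to no-virus vs infected.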
# [11] = target: Tyrosine-protein phosphatase non-receptor type substrate 1 (Homo sapiens) + Leukocyte surface antigen CD47 (Homo sapiens) (UniProt P78324+Q08722); test: CD47-SIRPalpha protein protein interaction - HTRF assay qHTS validation (AID 1347058; active means well fitted curve in the direction sought with a large enough effect in the signal ratio, not every such curve was filed as active; inconclusive means small, poorly fitted or top-dose-only effect, or effect the other way, or a change in a side signal; inactive means no such curve, though single readings can be large or run the other way; the % refers to the signal ratio; further: potency means the concentration at half of the fitted maximal effect); settings: TR-FRET HTRF CD47-His / biotin-SIRPalpha binding, ratio 665/615; series mostly up to 38.3 µM
# Summary of the method: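 TR-FRET read (Ch1/Ch2 ratio) of soluble extracellular CD47 and Avi-biotinylated SIRPalpha domains in PBS pH 7.4 with 0.05% IGEPAL; 7-point compound titration. Sequential 30 min room-temperature steps; non-biotinylated SIRPalpha as control inhibitor.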
# [12] = tested on: Zika virus NS2B-NS3 protease (unlinked); test: Optimization of GU AMC qHTS for Zika virus inhibitors: Unlinked NS2B-NS3 protease assay (AID 1347151); settings: recombinant ZIKV NS2B-NS3 protease, fluorogenic AMC substrate; series mostly up to 52.5 µM;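 further: 0% = no-inhibitor control and -100% = no-enzyme control; nearly all actives have a fitted effect of over 80% in size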
# Summary of the method: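 Unlinked protease (25 nM final); buffer 10 mM Tris-HCl pH 8.0 + 0.01% Tween 20; AMC substrate; 15 min RT, dark; Δfluorescence normalized to no-inhibitor/no-enzyme controls; 4-parameter Hill fit.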
# [13] = Primary qHTS for inhibitors of nuclear receptor binding SET domain protein 2 (NSD2) in an RCH-ACV wild type WT cells (2C) (AID 1645877); settings: RCH-ACV (leukaemia line) NSD2 WT (2C) viability, CellTiter-Glo, 72 h; activity change, negative = cell killing: at 44.9 µM (top of the series) unless noted; series mostly up to 44.9 µM; further: potency means the concentration at half of the fitted maximal effect; nearly all actives have a fitted effect of over 70% in size
# [14] = target: Metallo-beta-lactamase type 2 (Klebsiella pneumoniae) (UniProt C7C422); test: qHTS to identify inhibitors of the New Delhi Metallo-beta-lactamase (NDM): assay validation screen against the NCATS LOPAC Collection (AID 1794843); settings: NDM-1 enzyme, nitrocefin hydrolysis, absorbance 485 nm; series mostly up to 38.4 µM;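 further: nitrocefin turnover by NDM-1 measured as 485 nm absorbance at plateau; on the % scale 0 is the no-effect control and ±100 the full control effect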
# Summary of the method: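 Nitrocefin hydrolysis (50 uM substrate stock) by NDM-1, 2 nM final, was followed by 485 nm absorbance after compound preincubation; buffer was 50 mM HEPES pH 7.0, 1 uM ZnSO4, 0.01% Tween20.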
# [15] = target: Phospholipid hydroperoxide glutathione peroxidase GPX4 (Homo sapiens) (UniProt P36969); test: Primary qHTS Assay for Inhibitors of Recombinant Selenoprotein Glutathione Peroxidase 4 (GPX4) (AID 1845192); settings: recombinant GPX4, GR-coupled NADPH fluorescence, 15 min; series mostly up to 50 µM; further: on the % scale 0 is the no-effect control and ±100 the full control effect; nearly all actives have a fitted effect of over 65% in size
# Summary of the method: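 NADPH consumption, followed by fluorescence at 340/450 nm between 0 and 15 min, reports GPX4 activity via coupled glutathione reductase (100 nM). Enzyme 200 nM was pre-exposed to compound 30 min; 0.5 mM cumene hydroperoxide and 1 mM GSH served as substrates.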
# Tags describe the fitted curve by direction and shape.
# Sequence of UniProt P36969 (P36969 whole entry, looked up): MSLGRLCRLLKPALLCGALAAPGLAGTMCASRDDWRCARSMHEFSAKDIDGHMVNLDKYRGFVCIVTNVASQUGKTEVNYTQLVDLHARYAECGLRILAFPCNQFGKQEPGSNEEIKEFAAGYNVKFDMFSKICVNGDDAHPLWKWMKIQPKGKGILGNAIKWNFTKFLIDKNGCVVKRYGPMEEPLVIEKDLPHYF
# Sequence of UniProt P78324 (P78324 whole entry, looked up, the tested form may be a part): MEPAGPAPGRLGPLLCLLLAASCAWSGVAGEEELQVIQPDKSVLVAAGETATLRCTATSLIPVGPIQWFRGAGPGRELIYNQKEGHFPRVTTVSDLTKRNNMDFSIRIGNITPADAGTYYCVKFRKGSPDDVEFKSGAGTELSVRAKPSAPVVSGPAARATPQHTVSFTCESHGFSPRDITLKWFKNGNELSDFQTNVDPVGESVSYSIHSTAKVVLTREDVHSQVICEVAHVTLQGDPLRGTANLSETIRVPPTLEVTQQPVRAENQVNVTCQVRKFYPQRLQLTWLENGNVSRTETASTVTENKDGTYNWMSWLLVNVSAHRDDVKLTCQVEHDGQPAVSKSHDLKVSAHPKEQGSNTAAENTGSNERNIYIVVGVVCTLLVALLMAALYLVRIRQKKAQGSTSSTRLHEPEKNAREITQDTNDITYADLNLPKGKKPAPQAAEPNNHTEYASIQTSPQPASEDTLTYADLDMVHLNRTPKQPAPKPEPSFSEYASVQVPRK
# Sequence of UniProt P78324 (Q08722 whole entry, looked up, the tested form may be a part): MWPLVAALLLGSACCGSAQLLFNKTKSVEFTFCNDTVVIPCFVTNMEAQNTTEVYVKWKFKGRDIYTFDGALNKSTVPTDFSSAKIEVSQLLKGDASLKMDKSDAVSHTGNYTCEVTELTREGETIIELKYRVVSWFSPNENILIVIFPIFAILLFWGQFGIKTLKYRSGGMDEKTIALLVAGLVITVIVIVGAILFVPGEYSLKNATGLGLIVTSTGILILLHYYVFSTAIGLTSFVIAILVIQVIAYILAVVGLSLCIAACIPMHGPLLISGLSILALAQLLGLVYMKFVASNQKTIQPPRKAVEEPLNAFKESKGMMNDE
# Sequence of UniProt C7C422 (C7C422 whole entry, looked up): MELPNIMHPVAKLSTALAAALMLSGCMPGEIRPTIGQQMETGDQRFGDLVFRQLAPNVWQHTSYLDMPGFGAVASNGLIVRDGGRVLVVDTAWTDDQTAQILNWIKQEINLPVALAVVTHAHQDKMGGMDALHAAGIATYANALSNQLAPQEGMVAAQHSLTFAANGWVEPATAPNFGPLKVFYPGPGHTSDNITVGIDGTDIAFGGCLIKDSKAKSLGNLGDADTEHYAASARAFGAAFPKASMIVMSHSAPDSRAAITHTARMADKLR
compound,measurement,setting,value
CCCOc1ccc(-c2nc(OC)c3ccccc3n2)cc1,Potency,[1],"inconclusive: 29.1 µM [inhibitor, single point]"
same,Potency,[2],"inconclusive: 8.91 µM [rising, single point]"
CCC(C)C1NC(=O)C2CCCN2C(=O)C(NC(C)=O)C(C)OC(=O)C(Cc2ccc(OC)cc2)N(C)C(=O)C2CCCN2C(=O)C(C(C)C)NC1=O (configuration not stated) (Ac-TPIVP[NMeY](Me); ester 1-C; configuration not given here),Potency,[3],inactive
same,Potency,[1],"inconclusive: 1.93 µM [inhibitor, full curve]"
same,Potency,[4],inactive
C[C@]12C=C[C@@]3(CCC4[C@](C)(CO)CCC[C@@]4(C)C3CC1)C2 (some centres not stated),Potency,[5],active: 22.4 µM
same,max response,[1],inactive: -1.08%
same,Potency,[4],inactive
CC1=CC(=O)CC(C)(C)C1CCC(C)OC1OC(COC(=O)c2cc(O)c(O)c(O)c2)C(O)C(O)C1O (configuration not stated),Potency,[5],"inconclusive: 35.5 µM [inhibitor, partial curve]"
same,Potency,[6],"inconclusive: 14.1 µM [inhibitor, partial curve, poor fit]"
same,Potency,[7],active: 1.16 µM
same,Potency,[8],inactive
same,max response,[1],inactive: -1.65%
same,Potency,[4],inactive
C=CC1(C)C=C2C(O)CC3C(C)(C(=O)O)CCCC3(C)C2CC1 (configuration not stated),Potency,[5],active: 11.2 µM
same,Potency,[6],"inconclusive: 11.2 µM [inhibitor, single point]"
same,outcome,[1],inactive
same,Potency,[2],inactive
NS(=O)(=O)c1ccc(-n2nc(C(F)(F)F)cc2-c2ccc(Cl)cc2)cc1,Potency,[9],"inconclusive: 20.6 µM [inhibitor, single point]"
same,Potency,[10],inactive
same,Potency,[11],"inconclusive: 18.5 µM [side channel, falling, single point]"
same,Potency,[12],inactive
same,Potency,[5],"inconclusive: 89.1 µM [inhibitor, partial curve, poor fit]"
same,Potency,[3],"inconclusive: 25.8 µM [inhibitor, single point]"
same,Potency,[13],"inconclusive: 18.3 µM [inhibitor, single point]"
same,Potency,[14],inactive
same,Potency,[15],inactive
same,Potency,[1],"inconclusive: 29.1 µM [inhibitor, partial curve, poor fit]"
same,Potency,[2],inactive
C[C@@]1(O)[C@H](O)[C@@H](CO)O[C@H]1n1cnc2c(=O)[nH]c(N)nc21,Potency,[6],"inconclusive: 35.5 µM [inhibitor, single point]"
same,max response,[1],inactive: 0.111%
same,Potency,[2],"inconclusive: 15.8 µM [rising, partial curve, poor fit]"
